Data published in PMC12040169 (PLOS Biology, 2025).
Some of the results follow.

System: T1, C. trachomatis L2/434/Bu expressing GFP (CTL2-GFP)
T1 construct: L2/434/Bu GFP intracellular growth in HeLa cells
Set-up: species or system HeLa; C. trachomatis total inclusion area by high-content imaging, normalised to DMSO
Conditions: total inclusion area; 28.5 h, 10 µM; inhibitor
Summary of the method: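 High-content imaging followed the bulk GFP/resorufin measurement: fixed, Hoechst-stained cells were scored for GFP inclusions and host nuclei per well. Total inclusion area and count served as growth proxies, nuclei number as the viability proxy. MIC calculation matched the bulk assay.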

SMILES	% of control remaining
O=C(CSc1nc2ccccc2[nH]1)Nc1cccc(C(=O)O)c1 [CBK263225]	79.5156
Cc1ccc(C2(c3ccc(C)cc3)CC2C(=O)Nc2ccccc2[N+](=O)[O-])cc1 (stereo not shown) [CBK263591]	105.11
COC(=O)[C@H]1CCc2ccccc2N1C(=O)c1ccco1 [CBK284259]	97.412
c1cncc(COc2nccnc2OC2CCN(Cc3cccnc3)CC2)c1 [CBK083158]	85.2523
Cc1ccc(C(=O)n2nc(-c3cccnc3)nc2N)cc1 [CBK288172]	100.123
N#CCn1nnc(-c2ccc3c(c2)OCO3)n1 [CBK062663]	102.93
Cn1c(=O)c2c(nc(CN3CCOCC3)n2Cc2c(F)cccc2Cl)n(C)c1=O [CBK269224]	101.059
Cn1nc(-c2ccc(F)cc2)cc1C(=O)NCCn1ccnc1 [CBK281576]	109.61
O=S(=O)(CCN1CCN(C(c2ccccc2)c2ccccc2)CC1)c1ccc(Cl)cc1 [CBK074810]	88.6932
CC1CCN(S(=O)(=O)c2ccc(C(=O)O)cc2)CC1 [CBK287195]	95.6202
O=C(c1csc2c1CCCC2)N1CCc2c(nc[nH]c2=O)C1 [CBK283717]	90.4449
COc1cc(Nc2cccc(-c3ccsc3)n2)cc(OC)c1OC [CBK036987]	83.3966
Cc1cc(C)c(C)c(S(=O)(=O)Nc2ccc(C(=O)NCc3ccccn3)cc2)c1C [CBK267275]	115.062
Fc1ccc(Oc2nccnc2N2CCN(Cc3ccccc3F)CC2)cc1 [CBK083009T]	95.762
CC(C)(C)c1ccc(-c2nc3ncccc3cc2O)cc1 [CBK073703]	94.7202
Cc1ccc(CNc2oc(COc3ccc(Br)cc3)nc2C#N)cc1 [CBK074467]	81.4139
O=C(O)c1ccc(NC2CCS(=O)(=O)C2)cc1 (stereo not shown) [CBK287168]	126.14
COc1ccc(CSc2nc(N)c3c4c(sc3n2)CCCC4)cc1 [CBK131876]	88.5742
Cc1ccc(C)c2[nH]c(=O)c(CN(Cc3cccnc3)C(=O)NC3CCCCC3)cc12 [CBK068091]	87.6869
CCc1nnc(NS(=O)(=O)c2ccc(Nc3ccc4nonc4c3[N+](=O)[O-])cc2)s1 [CBK261445]	87.1404
CC1=NNC(=O)C1CCC(=O)N/N=C/C(Br)=C/c1ccccc1 (stereo not shown) [CBK262929]	92.8774
Cc1ccnc2nc(C(=O)OC(C)C(=O)c3ccc4c(c3)CCC4)nn12 (stereo not shown) [CBK304528]	68.9285
O=C1NN=C(Cc2ccccc2)C1c1ccccc1 (stereo not shown) [CBK067757]	95.7977
Cc1cc(C)cc(C(=O)N(CCc2ccccc2)C2CC3CCC(C2)N3C)c1 (stereo not shown) [CBK262612C]	88.0901
CCC1(CC)OC(N[C@@H](C)c2ccc3ccccc3c2)=NC1=O [CBK123982]	96.2763
Cc1oc2ccc(O)cc2c1C(=O)NCCCN1CC(C)CC(C)C1 (stereo not shown) [CBK282161]	100.075
Cc1nnc([C@H]2CCN(Cc3ccccc3)C2)o1 [CBK289390]	115.233

SMILES	% of control remaining
O=C(O)/C(=N\O)c1ccc(CCc2ccccc2)s1 [CBK261213]	97.3654
O=C(NCc1ccc(N2CCCC2=O)cc1)c1cc(Br)ccc1O [CBK296614]	68.1229
O=C(CCCc1ccccc1)Nc1ccc(O)cc1C(=O)O [CBK131699]	109.63
CCCCN(Cc1ccc(C)s1)C(=O)C1CCc2nn(C)c(=O)n2C1 (stereo not shown) [CBK307360]	38.8414
CCn1cncc1CN(CCCn1ccnc1)CC1CC=CCC1 (stereo not shown) [CBK283220]	122.483
O=C(Nc1cccc(C(=O)O)c1)/C(=C\c1ccc2c(c1)OCO2)NC(=O)c1ccccc1 [CBK263697]	100.458
c1ccc(NCc2ncnc3c2ncn3C2CCCCO2)cc1 (stereo not shown) [CBK021593]	62.763
CCN1C(=O)S/C(=C/c2ccc(OCc3cccc(C(=O)O)c3)cc2)C1=O [CBK265605]	107.96
CCC1CCCCN1Cc1nc2c(c(=O)n(C)c(=O)n2C)n1CCOC (stereo not shown) [CBK305912]	84.1663
COc1ccc(NC(=O)Nc2ccc3nc(C)c(C)nc3c2)cc1 [CBK265120]	84.7486
CC(=O)NCCSc1nc2ccccc2nc1N1CCCC1 [CBK103696]	73.4165
O=S(=O)(CC(F)(F)F)Nc1ccc(-c2nnn[nH]2)cc1 [CBK154754]	98.1034
COc1cc(C(=O)N(Cc2ccco2)c2ccc(O)cc2)cc(OC)c1OC [CBK266315]	87.9211
CC(C)(C)OC(=O)N1CCN(c2cncc(OC3CSCc4ccccc43)n2)CC1 (stereo not shown) [CBK172354]	76.2364
NS(=O)(=O)c1ccc(CCNC(=O)C2CC2)cc1 [CBK288407]	54.4701
Cc1cc(NC(=O)CN(C)C(=O)c2cnc(Cl)c(Cl)c2)no1 [CBK306132]	57.6209
Cc1ccc(OCC(=O)N2CCN(C(=O)c3ccncc3)CC2)cc1 [CBK300480]	73.2215
Cc1nn(CC(=O)N2CCCCC2C)c(=O)c2cc3sccc3n12 (stereo not shown) [CBK284141]	61.0257
CC(C)N1CCC(C(=O)NC(=O)Nc2ccc3c(c2)OCCO3)CC1 [CBK034799]	96.5812
CC(C)CNC(=S)N[C@H]1CC[C@@]2(c3cccnc3)CCN(Cc3ccccc3)[C@H]2C1 [CBK028460]	64.7019
COc1ccccc1-c1nccnc1N[C@H](C)c1ccccc1 [CBK038083]	114.22
COCC(=O)NC(Cc1cccs1)c1nc(C)cs1 (stereo not shown) [CBK285004]	103.348
O=C(CSc1nnc(-c2ccncc2)n1-c1ccccc1)N/N=C/c1c[nH]c2ccc(Br)cc12 [CBK262816]	125.984
CC(=O)NCC(=O)N1CCCC2(C/C=C/COc3ccccc3C(=O)NCCNC2=O)C1 (stereo not shown) [CBK291991]	126.466
CC(C)(O)C1CCCN(C(=O)c2cc(COc3cccc(F)c3)[nH]n2)C1 (stereo not shown) [CBK306653]	34.6908
Cc1noc(C)c1S(=O)(=O)n1c(=O)n(Cc2ccc(S(C)(=O)=O)cc2)c2ccccc21 [CBK106536]	78.4348
COc1ccc(C2(C(=O)NCCN3CCCC3)CC2)cc1 [CBK149824]	90.0148

SMILES	% of control remaining
Cc1nnc(C(C)Sc2nnc(N3CCC(C)CC3)n2Cc2ccco2)o1 (stereo not shown) [CBK298311]	74.1723
CC(=O)NC[C@H]1CN(c2ccc3c(c2)CCN(C(=O)Cc2ccccc2)CC3)C(=O)O1 [CBK018499]	0
CCOC(=O)C1=C(Nc2ccc([N+](=O)[O-])cc2)S/C(=C\c2ccc(O)c(OC)c2)C1=O [CBK263873]	100.562
CC(=O)N1CCCC1C(=O)N1CC(C(=O)Nc2nc3c(C)cc(C)cc3s2)C1 (stereo not shown) [CBK286039]	117.822
CCCC/C=C/c1cncc(N2CCN(C(=O)c3ccco3)CC2)n1 [CBK037918]	134.323
Nc1ccc(Cc2ccc(N)c(O)c2)cc1O [CBK261149]	99.6761
N#C/C(=C/c1ccc(-c2cc(C(=O)O)cc(C(=O)O)c2)o1)c1nc2ccccc2s1 [CBK266754]	73.4121
COc1ccccc1-c1cc(Nc2ccc(NS(=O)(=O)c3ccc(C)cc3)cc2)ncn1 [CBK037819]	71.9626
CCOC(=O)c1cccc(-n2ncc(-c3ccc(F)cc3)n2)c1 [CBK112908]	85.6977
O=C(c1nn2c(C(F)(F)F)cc(-c3ccccc3)nc2c1Br)N1CCCCC1 [CBK051497]	88.8136
O=C(O)CNC(=O)/C(=C/c1ccc(Br)cc1)NC(=O)c1ccc(Br)o1 [CBK262537]	103.431
COc1ccccc1N1CCN(CCCCNC(=O)c2ccc(Cl)cc2)CC1 [CBK074835]	75.4747
CC(C)(C)OC(=O)N1CCN(Cc2nc(-c3ccccc3)no2)CC1 [CBK306465]	57.7989
O=C1NC2(CCCCC2)C(=O)N1c1cccc(Cl)c1 [CBK287969]	91.2601
O=C(OCc1ccc(Sc2ccc([N+](=O)[O-])cc2Cl)cc1)c1cnccn1 [CBK268037]	102.215
Cc1cc(C)n(-c2nc3c(c(=O)[nH]c(=O)n3C)n2CCc2ccccc2)n1 [CBK087129]	79.061
CC(NC(=O)C1(Cn2ccnc2)CC1)c1ccccc1-n1cccn1 (stereo not shown) [CBK307006]	78.1138
NS(=O)(=O)c1cc(C(=O)O)ccc1F [CBK113180]	103.299
COc1ncc(-c2cnc3[nH]c(=O)n(Cc4ccc(S(C)(=O)=O)cc4)c3n2)cn1 [CBK065053]	101.515
CC(=O)NC1(c2ccc(F)cc2)CCN(CC(=O)NCC2CC2)CC1 [CBK283614]	123.789
COc1ccc(OC)c(C(O)c2coc3ccc(O)c(CN(C)C)c23)c1 (stereo not shown) [CBK261314]	86.5283
CC(C)(C)c1ccc(CNC(=O)C2CCCN2S(=O)(=O)c2ccc3ccccc3c2)cc1 (stereo not shown) [CBK265020]	92.0477
Clc1cccc(CNc2cncc(-c3cccnc3)n2)c1 [CBK065283]	61.207
CCN1CCN(c2ccc(C(=O)OC)cc2NC(=O)c2ccccc2Cl)CC1 [CBK270267]	113.085
CN(C)CCNc1ccc(-c2n[nH]c(=O)c3ccccc23)cc1[N+](=O)[O-] [CBK266143]	107.605
